Results from PubChem BioAssay AID1508623 (National Center for Advancing Translational Sciences (NCATS), 2021).
In all, about 48,000 compounds went through this assay and about 450 (0.94%) were called active. About 19% were inconclusive and are not listed. Calls follow the shape of the dose curve; as a rule, active = well fitted inhibition curve with a large enough effect; inconclusive = small, poorly fitted or top-dose-only effect; inactive = no such curve, though single readings can be large or run the other way. Some of the results follow.

Test: Primary qHTS for Identification of Small Molecule Inhibitors of Huntingtin Promoter Activity; also: nearly all actives have a fitted effect of over 50% in size
Details: HEK293 HTT promoter firefly luciferase reporter (activity 0% = vehicle and -100% = no light), 24 h; series mostly up to 57.5 µM; activity change, negative = inhibition: at the top concentration
Summary of the method: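 HEK293 Fluc reporter, 2,500 cells/well, 24 h pre-culture; cpds up to 57.5 uM final, 24 h 37 degrees C; Dual-Glo, 10 min RT; normalized vehicle = 0%, zero RLU = -100%.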

Activity change, negative = inhibition, inactive:
Brc1cccc(-c2nnn3c2nc(NC2CCCCC2)c2ccccc23)c1 -11.4%, Cc1nn(-c2ccc(N3CCOCC3)nn2)c(C)c1CCC(=O)NCc1ccc(Cl)cc1 -32%, CC1CCCCN1CCNC(=O)c1ccc(Cn2c(SCc3ccccc3)nc3cccnc32)cc1 (centres undefined) 32.4%, COc1ccc2nc3sc(C(=O)NCCc4ccc(Cl)cc4)cc3cc2c1 -3.78%, COc1ccc(-c2nc3ccccc3o2)cc1NC(=O)COc1cc(C)cc(C)c1 -2.59%, Cc1oc2c(c1C(=O)Nc1ccc(OC(F)(F)F)cc1)C1=NCCN1C=N2 -5.49%, COc1ccc(NS(=O)(=O)c2cnc(N)nc2)cc1Cl -11.8%, CC(=O)c1ccc(Oc2ncnc3c2oc2ccccc23)cc1 54.1%, COc1ccc(NC(=O)CCS(=O)(=O)c2cc3c4c(c2)CCN4C(=O)CC3)c(OC)c1 -8.16%, COc1ccc(C(=O)c2c(N)c(C(=O)Nc3ccccc3Cl)c3ccccn23)cc1 -18.7%, O=C(COc1ccc2oc3c(c2c1)CCCC3)Nc1cccc(Br)c1 -1.83%, Cc1cc(=O)[nH]c2nnc(SCC(N)=O)n12 -8.55%, COc1cc(C(=O)NCCc2sc(-c3ccc(C)cc3)nc2C)cc(OC)c1OC -19.4%, CC1CCN(C(=O)Cn2cc(SCC(=O)NCc3ccc(F)cc3)c3ccccc32)CC1 -19.3%, CCCCc1ccc(C(=O)c2c(N)c(C(=O)Nc3cccc(OC)c3)c3ccccn23)cc1 -5.58%, Cc1nnc(N2C(=O)c3oc4ccccc4c(=O)c3C2c2cccc(OCCC(C)C)c2)s1 (centres undefined) -15.6% [at 11.5 µM], COCCCNC(=O)c1c(NC(=O)Cc2coc3cc(C)ccc23)sc2c1CCCC2 -38.1%, COc1ccc(C(=O)/C=C/c2cn(CC(O)CN3CCCCCC3)c3ccccc23)cc1OC (centres undefined) -20%, O=[N+]([O-])c1cc(-c2nc(-c3ccccc3)no2)ccc1NCc1ccco1 49.4%, Cc1ccc(-c2noc(-c3ccc(N4CCOCC4)c([N+](=O)[O-])c3)n2)cc1 -30.9%, COc1ccc(NC(=O)CSc2nc3ccccc3nc2N2CCOCC2)c(OC)c1 -18.8%, Cc1ccc(C(=O)c2oc3ccccc3c2NC(=O)COc2ccccc2C)cc1 10.8%, Cc1ccccc1CN1C(=O)c2ccccc2S(=O)c2ccc(C(=O)N3CCOCC3)cc21 (centres undefined) -15.2%, Cn1c(=O)c2cc(C(=O)NCCCN3CCN(c4ccc(F)cc4)CC3)sc2c2ccccc21 -16.4%, Cc1ccccc1CNC(=O)CN1C(=O)CCCc2ccccc21 5.55%, N[C@H](Cc1c[nH]c2ccccc12)C(=O)O 2.24%, Cc1ccc(C2CC(=O)N(Cc3ccc(F)cc3)c3c2c(C)nn3-c2nc(C)cc(C)n2)cc1 (centres undefined) -27.3%, COc1ccc(CCNC(=O)CCCn2c(=O)c3ccccc3n(CC(=O)Nc3ccccc3C)c2=O)cc1OC 1.46%, O=C(CN1CCN(Cc2ccc(F)cc2)C1=O)NCc1ccc(F)cc1 -6.04%, Cc1sc(C2C(C#N)=C(N)N(c3ccc(Cl)cc3)C3=C2C(=O)CCC3)cc1CN1CCOCC1 (centres undefined) -13.6%, O=C(COc1ccccc1)N(Cc1cccnc1)c1nc2c(F)cc(F)cc2s1 -23.1%, CC1CCN(S(=O)(=O)c2ccc3c(c2)N(CC(=O)NCCCOC(C)C)C(=O)CO3)CC1 -14.7%, Cc1ccsc1CN(C(=O)COc1ccccc1Cl)C1CCS(=O)(=O)C1 (centres undefined) -9.66%, CCOC(=O)CSc1nc2sc3c(c2c(=O)n1Cc1ccccc1)CC(C(C)C)OC3 (centres undefined) 8.84%, CCC(C)NC(=O)CCCn1c(=O)c2cccn2c2ccccc21 (centres undefined) 7.08%, CCC(C(=O)NC1CCCCC1)n1c(SCc2ccccc2F)nc2ccncc21 (centres undefined) -24.9%, COCCNC(=O)CN1C(=O)COc2ccc(S(=O)(=O)N3CCCCCC3)cc21 -13%, CCc1ccc(NC(=O)CSc2ccc(-c3sc(-c4ccccc4)nc3C)nn2)cc1 0.961%, CCN(Cc1ccccc1)c1nc2c(S(=O)(=O)c3ccccc3)nnn2c2ccc(Cl)cc12 -17.3%, Cc1nn(C(C)C(=O)NCCc2ccccc2)c(=O)c2c1sc1ccccc12 (centres undefined) -23.9%, Cc1cc(C)c(NC(=O)CSc2nc3ccccc3c3nc(-c4ccccc4)nn23)c(C)c1 -11.5%, CCc1ccc(C(c2ccccc2)c2c(C)[nH]c3ccccc23)s1 (centres undefined) -24.7%, Cc1cccc(CNC(=O)c2ccc3c(c2)N(C)CCS3)c1 -21.5%, COc1ccc(NC(=O)Cn2c(=O)n(CCCC(=O)NCc3ccccc3Cl)c(=O)c3ccccc32)c(OC)c1 -27.8%, Cc1ccccc1CNC(=O)Cn1nc(C)c2nn(-c3ccc(Cl)cc3)c(C)c2c1=O -29.9%, CCOC(=O)c1sc2ccccc2c1S(=O)(=O)Nc1cc(OC)ccc1OC -16.1%, COc1ccc(CNCc2c(C(=O)O)c(C)n(Cc3ccccc3C)c2C)cc1OC -14%, Cc1ccc(C)c(N2CCN(S(=O)(=O)c3ccc4[nH]c5c(c4c3)CCCC5)CC2)c1 -11.2%, COc1ccc(N2CCN(c3ncccc3-c3nc(-c4ccccc4C)no3)CC2)cc1 -4.64%, N#Cc1nc(-c2ccc(COc3ccc(Cl)cc3)o2)oc1N1CCCCC1 -26.2%, COc1ccccc1N1CCN(c2nc3c(S(=O)(=O)c4ccccc4)nnn3c3ccc(Cl)cc23)CC1 4.1%, COc1ccc(CNS(=O)(=O)c2ccc(C(=O)N(C)C)s2)cc1 -23.6%, Fc1ccc(N2CCN(Cc3nnc(-c4ccccc4Cl)o3)CC2)cc1 -29.5%, CCc1cccc(C)c1Nc1c(-c2ccc(F)cc2)nc2sccn12 -23%, CCOc1ccc(NC(=O)CSc2ncc(S(=O)(=O)c3ccc(F)c(C)c3)c(=O)[nH]2)cc1 -9.81%, Cc1ccc(CNc2nc(-c3ccco3)nn2C(=O)c2ccccc2[N+](=O)[O-])cc1 32.5%, COc1ccc(N2CC(C(=O)NCCS(=O)(=O)N3CCN(c4ccccc4)CC3)CC2=O)cc1 (centres undefined) -4.09%, CC(C)OCCCNC(=O)c1cn(C)c2ccc(S(=O)(=O)N(C)C3CCCCC3)cc2c1=O -6.01%, O=C(CCCN1CCN(c2ccccn2)CC1)c1ccc(F)cc1 -18.3%, COc1ccc(S(=O)(=O)N2CCC(Oc3cccc(C(F)(F)F)c3)CC2)cc1OC -11.9%, Cc1ccc2occ(-c3cc(-c4ccccc4)nc4c3COc3ccccc3-4)c(=O)c2c1 -7.01%, Cc1ccc(-n2c(=O)c3c(C)c(C(=O)N(C)C)sc3n(CC(=O)N(C)c3ccccc3)c2=O)cc1C -4.27%, Cc1ccc(C)c(NC(=O)CSc2nc3nccnc3c(=O)n2CCc2c[nH]c3ccccc23)c1 -5.91%, CCc1cccc(C)c1NC(=O)CN1CCN(Cc2ccccc2Cl)S1(=O)=O -3.5%, O=C(Nc1ccc(-c2nc3cc(Cl)ccc3o2)cc1)c1cc(Br)ccc1Cl -14.5%, CCN(C(=O)CSc1nc2ccccc2c2nc(CCn3c(C)nc4ccccc43)nn12)c1cccc(C)c1 -8.98%, COc1cc(C(=O)NC2(C(F)(F)F)C(=O)NC(C)=C2C#N)cc(OC)c1OC (centres undefined) -7.11%, CCN(CC)S(=O)(=O)c1ccc2c(c1)N(CC(=O)N1CCN(c3cccc(C)c3)C(C)C1)C(=O)CO2 (centres undefined) -24.1%, COc1ccc(-c2csc3nc(-c4ccc(Cl)cc4)oc(=O)c23)cc1 -4.05%, Cc1cccc(NC(=O)CCn2cnnn2)c1 -13.8%, Cc1ccc(Nc2c(-c3ccc(N4CCOCC4)cc3)nc3ccc(C)cn23)cc1 -5.72%, COc1ccc(NC(=O)CSc2nnc(N)s2)cc1 11.8%, Cn1c(=O)oc2cc(S(=O)(=O)NC(CC(=O)O)c3cccc(Br)c3)ccc21 (centres undefined) -1.03%, Cc1cccc(NC(=O)NCCn2c(=O)oc3ccc(C)cc32)c1 -9.79%, COc1cccc(NC(=O)c2sc3nc(N4CCOCC4)c4c(c3c2N)CC(C)(C)OC4)c1 38.7%, Cc1oc2c(c1C(=O)NCc1cccc(Br)c1)C1=NCCN1C=N2 6.55%, Cc1ccc(CNC(=O)CCCn2c(=O)c3ccccc3n(CC(=O)C(C)(C)C)c2=O)cc1 -5.31%, CCOC(=O)Cn1c(=O)n(CC2CCCO2)c2nc(-c3ccc(OC)cc3OC)nc(C(N)=O)c21 (centres undefined) -12.9%, COc1cc(NC(=O)C(CC(C)C)NS(=O)(=O)c2ccc3c(c2)CCCC(=O)N3)cc(OC)c1 (centres undefined) -10.9%, COc1ccc(CNC(=O)CN(c2ccc(C)cc2)S(=O)(=O)c2c(C)n[nH]c2C)cc1 -5.12%, COc1ccc2oc(=O)c(-c3csc(/C(C#N)=C/c4ccc(F)cc4)n3)cc2c1 -3.01%, COc1ccccc1N1CCN(C(=O)C2CCN(S(=O)(=O)c3cnc[nH]3)CC2)CC1 3.12%, CCOc1ccc(NC(=O)Cn2c(=O)n(-c3ccc(C)cc3)c(=O)c3cc(OC)c(OC)cc32)cc1 2.7%, Cc1ccc(C)c(N2CCN(C(=O)c3cnc4c(-c5ccccc5)c(C)nn4c3C)CC2)c1 -15.6%, Cc1ccc(/C=C(\C#N)C(=O)Nc2cc(C)ccc2C)cc1 -0.476%, CCOC(=O)c1c(NC(C)=O)c2c3c(sc2n1Cc1nc(-c2ccccc2OCC)oc1C)CCCC3 3.95%, CC(C)(C)OC(=O)N[C@H]1CCCCCC=C[C@@H]2C[C@@]2(C(=O)NS(=O)(=O)C2CC2)NC(=O)[C@@H]2C[C@@H](OC(=O)N3Cc4cccc(F)c4C3)CN2C1=O -13.4%, COc1cc(C)c(Cl)cc1S(=O)(=O)NCCc1c(C)[nH]c2ccccc12 -2.9%, Cc1ccc(C)c(CN2C(=O)c3ccccc3S(=O)c3ccc(C(=O)NCc4ccccc4Cl)cc32)c1 (centres undefined) -12.6%, CCN(CC)c1ccc(C(=O)NCc2ccc3c(c2)CCN3C(=O)c2ccccc2)cc1 -11.7%, Brc1ccccc1-n1ncc2c1ncn1nc(Cc3ccccc3)nc21 37%, Cc1ccc2c(c1)N(C(=O)CCC(=O)Nc1ccccc1Cl)CC(C)O2 (centres undefined) -19.8%, O=c1cc(CSc2ncn[nH]2)[nH]c2c(Cl)cccc12 0.441%, COc1ccc(OC)c(Nc2nc(-c3ccc(C)cc3)nc3ccccc23)c1 7.38%
